Results as given in PubChem BioAssay AID686979 (National Center for Advancing Translational Sciences (NCATS), 2013).
About 50,000 (12%) of roughly 420,000 compounds were called active. Another 26% or so got no clear call; they are omitted. The call rests on the fitted dose curve; in most records, active means well fitted inhibition curve with a large enough effect; inconclusive means small, poorly fitted or top-dose-only effect; inactive means flat fitted curve, though single readings scatter. Only a part is listed here, and it is no random draw. The source holds several records for some structures; these can differ, active in one and inactive in another.

Assay: qHTS for Inhibitors of human tyrosyl-DNA phosphodiesterase 1 (TDP1): qHTS in cells in presence of CPT; further: nearly all actives have a fitted effect of over 55% in size
Settings: chicken DT40 Tdp1-/-;hTDP1 cells + 20 nM CPT, ATP luminescence, 48 h; series mostly up to 46.2 µM; activity change, negative = growth inhibition: at the top concentration
Procedure, shortened: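 Cell growth measured by CellTiter-Glo luminescence after a minimum 48 h, 37 C compound exposure with 20 nM CPT in Tdp1-knockout DT40 cells stably expressing hTDP1, seeded 400/well; qHTS titration format.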
On the % scale 0 is the no-effect control and ±100 the full control effect; potency means the concentration at half of the fitted maximal effect.

Row | Compound | activity change, negative = growth inhibition | Potency
1 | O=C1NCCNC1(c1c[nH]c2ccccc12)C(F)(F)F (centres undefined) | inactive: -7.51% | 
2 | CCCC[C@H]1COCCS(=O)(=O)N1Cc1cccc(Cl)c1 | inactive: 0.0482% | 
3 | O=C(Nc1ccc(C2=NCCN2)cc1)c1ccc(C(=O)Nc2ccc(C3=NCCN3)cc2)c(Cl)c1 |  | active: 7.31 µM
4 | COc1ccc(Br)cc1S(=O)(=O)Nc1ccc(Cl)cn1 | inactive: 31.9% | 
5 | CCOC(=O)[C@@H]1[C@H]2COc3cc(OC)ccc3[C@@H]2N2C(=O)N(c3ccc(C)cc3)C(=O)[C@]12C | inactive: -12.5% | 
6 | CCOC(=O)c1c(/N=C/c2cc(C)ccc2O)sc2c1CCN(C)C2 | inactive: 31.6% | 
7 | COc1ccc(NS(=O)(=O)c2ccc3c(c2)[C@H]2C=CC[C@H]2[C@@H](c2ccc(C(=O)O)cc2)N3)cc1 | inactive: -28.2% | 
8 | COC(=O)[C@H]1[C@@H]2C[C@H]3c4[nH]c5ccccc5c4CCN3C[C@@H]2CC[C@@H]1O | inactive: 8.87% | 
9 | COc1cccc(C(=O)Nc2cccc3c2ccc2cccn23)c1 |  | active: 16.4 µM
10 | NCCCNC(=O)c1ccc(/C=N/O)nc1 | inactive: 33.3% | 
11 | Cc1cccc(NC(=O)CCCc2ccccc2)c1C | inactive: 35.6% | 
12 | COc1ccc2[nH]c(C)c(C(=O)CN(C)C)c2c1 | inactive: 9.74% | 
13 | CCCCCCCCCCCCCCCC(=O)NCCO |  | inactive
14 | C[C@H](NC(=O)C1(c2ccccc2)CCN(C(=O)OC(C)(C)C)CC1)C(=O)N[C@@H](C(=O)O)c1ccccc1 | inactive: -1.59% | 
15 | Cc1nc(SCc2ccc(F)cc2)c([N+](=O)[O-])[nH]1 | inactive: 33.7% | 
16 | O=C(C1CCCO1)N1CCN(C(=S)Nc2ccc(Cl)c(Cl)c2)CC1 (centres undefined) | inactive: 31.4% | 
17 | Cc1nc2cc(NCc3nc4ccccc4n3Cc3ccccc3)ccc2n1C |  | active: 23.1 µM
18 | CC(C)C[C@H]1COc2cccc(N3CCC[C@@H]3CO)c2S(=O)(=O)N1 | inactive: -15.9% | 
19 | O=C(Cn1ccn(-c2ccc(F)c(F)c2)c(=O)c1=O)NCCc1ccccc1 | inactive: -17.9% | 
20 | N[C@H](CO)C(=O)O | inactive: -3.74% | 
21 | COC(=O)C[C@H]1c2ccccc2S(=O)(=O)N1c1cccc(OC)c1 | inactive: -1.55% | 
22 | O=C1CCN(Cc2ccc(O)cc2)CCN1[C@H](CO)Cc1ccccc1 | inactive: 13.7% | 
23 | NCCCCNCCCN |  | inactive
24 | Cc1ccc(S(=O)(=O)N(C)C[C@@H]2OCc3cnnn3CCCC(=O)N([C@H](C)CO)C[C@@H]2C)cc1 | inactive: -15.6% | 
25 | COCC(=O)Nc1ccc2c(c1)[C@@H]1C[C@H](CC(=O)OC)O[C@H](CO)[C@@H]1O2 | inactive: 18.5% | 

Row | Compound | activity change, negative = growth inhibition | Potency
26 | C[C@@H]1CN([C@H](C)CO)C(=O)CCCn2nncc2CO[C@H]1CN(C)S(=O)(=O)c1ccc(Oc2ccccc2)cc1 | inactive: -20.3% | 
27 | CC(=O)O[C@H]1C[C@@]2(C)[C@@H](C[C@@H](O)[C@H]3[C@@]4(C)CC[C@@H](O)[C@@H](C)C4CC[C@@]32C)/C1=C(\CCC=C(C)C)C(=O)O (some centres undefined) | inactive: -17.1% | 
28 | CCC(Sc1nncn1C)C(=O)Nc1cc(C)on1 (centres undefined) | inactive: 30.8% | 
29 | Cc1c(C(=O)NCC2CCCO2)sc2nc(-c3ccc(F)cc3)cn12 (centres undefined) |  | active: 14.6 µM
30 | Cc1ccc(C(C)C)c(OCC(=O)OCC(=O)NC2CCS(=O)(=O)C2)c1 (centres undefined) | inactive: 0.428% | 
31 | O=c1c2ccccc2c(/C=N/c2ncn[nH]2)c(O)n1Cc1ccccc1 | inactive: -8.11% | 
32 | COc1ccc(NC(=O)CN2CCN(c3ccccc3C)CC2)cc1 | inactive: 32.9% | 
33 | COc1cc(/C=C2/NC(=O)NC2=O)cc(Br)c1OCc1cccc(C(=O)O)c1 | inactive: 35.2% | 
34 | COc1ccc(OC)c(-c2cc(C(=O)NCc3ccc(Cl)cc3)no2)c1 | inactive: -23.6% | 
35 | CC1=NN(c2ccc(S(=O)(=O)O)cc2Cl)C(=O)C1 | inactive: 38.2% | 
36 | COc1ccc(N2CCN(C(=O)CN(C)S(=O)(=O)c3cccs3)CC2)cc1 | inactive: -10.2% | 
37 | COc1ccc(NC(=O)C2CCCN(S(=O)(=O)c3ccc4c(c3)CCCN4C(C)=O)C2)cc1 (centres undefined) | inactive: -14.3% | 
38 | COc1ccccc1C(CNC(=O)c1ccc(S(=O)(=O)NCc2ccco2)cc1)N(C)C (centres undefined) | inactive: 43.4% | 
39 | O=C(O)CCC(=O)Nc1ccc(C(=O)OCC(=O)c2ccc(Cl)cc2)cc1 | inactive: 34.9% | 
40 | COc1ccc(/C=C2\SC(=O)N(CCC(=O)Nc3ccccc3)C2=O)cc1OC | inactive: -0.7% | 
41 | CCCS(=O)(=O)N1CCc2ccc(NC(=O)c3ccccc3Cl)cc2C1 | inactive: 13% | 
42 | Cc1cccc(NC(=S)N=Nc2c(O)n(CN3CCOCC3)c3ccccc23)c1C |  | active: 5.8 µM
43 | Cc1nn(C(C)C(=O)N2CCOCC2)c(C)c1[N+](=O)[O-] (centres undefined) | inactive: 40.8% | 
44 | CCOc1ccccc1C(=O)N1CC(=O)Nc2ccc(Cl)cc2C1c1ccccc1 (centres undefined) |  | active: 20.6 µM
45 | CNC[C@@H]1Oc2cc(Br)ccc2S(=O)(=O)N([C@H](C)CO)C[C@H]1C | inactive: 2.43% | 
46 | CN(C)CC/C=C1\c2ccccc2CSc2ccccc21 | inactive: 3.15% | 
47 | Cc1ccc(C)c(Nc2c([N+](=O)[O-])c(=O)oc3ccccc23)c1 |  | active: 23.1 µM
48 | Cc1cccc(NS(=O)(=O)c2ccc3c(c2)[C@H]2C=CC[C@H]2[C@@H](c2ccc(F)cc2)N3)c1 |  | active: 10.3 µM
49 | Cc1ccccc1CSCCC(=O)NCCc1ccccc1 | inactive: 36.6% | 
50 | CC(C)C(NC(=O)C(NC(=O)C1OC2OC(C)(C)OC2C2OC(C)(C)OC12)C(C)C)C(=O)O (centres undefined) | inactive: 28.2% | 

Row | Compound | activity change, negative = growth inhibition | Potency
51 | Fc1ccccc1Cc1noc(CN2CCN(Cc3ccc4c(c3)OCO4)CC2)n1 | inactive: 11.3% | 
52 | Cc1nnc(NS(=O)(=O)c2ccc(N=Nc3ccc(N)nc3N)cc2)s1 | inactive: 20.1% | 
53 | Cn1[nH]c(=O)c(Cl)c(Cl)c1=O | inactive: -2.74% | 
54 | Cc1cccc(C)c1NC(=O)C1CCCCN1C (centres undefined) | inactive: -0.835% | 
55 | O=C(Nc1ccncc1)Nc1ccc(Cl)cc1Cl |  | active: 18.4 µM
56 | COc1cc(C(=S)N2CCCC2)ccc1OCC(N)=O | inactive: 4.54% | 
57 | COc1ccc(NC(=O)CCN2CCN(c3ccc(F)cc3)CC2)cc1 |  | active: 23.1 µM
58 | COc1ccc(NC(=O)CNC(=O)c2cccs2)cc1Cl | inactive: 41.8% | 
59 | CCOC(=O)c1c(N2C(=O)Nc3ccccc3N2O)n[nH]c1-c1cccc(Cl)c1 | inactive: 46.5% | 
60 | Cn1c(=O)[nH]c(=O)c2c1nc(N)n2Cc1ccccc1 | inactive: 46% | 
61 | C[C@H](CO)N1C[C@H](C)[C@@H](CN(C)S(=O)(=O)c2ccc3c(c2)OCCCO3)OCc2cnnn2CCCC1=O | inactive: 0.607% | 
62 | O=C(c1ccc(COc2ccccc2Br)cc1)N1CCCCC1 |  | active: 14.6 µM
63 | Nc1ccc(C=C2C=Cc3ccccc32)cc1 | inactive: 4.1% | 
64 | COCC1=C(C(=O)OC(C)OC(=O)OC(C)C)N2C(=O)[C@@H](NC(=O)/C(=N\OC)c3csc(N)n3)[C@H]2SC1 (some centres undefined) |  | inactive
65 | O=C(C1=C[C@@H](c2ccc3c(c2)OCO3)C[C@@H](OCCCCO)O1)N1CCOCC1 | inactive: -5.02% | 
66 | C#Cc1ccc([C@@H]2C=C(C(=O)NC3CC3)O[C@H](OCC)[C@H]2CCCO)cc1 | inactive: -18.8% | 
67 | O=C1C(Cc2ccccc2)Nc2ncnc(N3CCCCC3)c2N1Cc1ccc(Br)cc1 (centres undefined) | inactive: -27.1% | 
68 | Cc1ccc(-n2ncc3c(Nc4cccc(C(=O)O)c4)ncnc32)cc1 | inactive: -30% | 
69 | COC(=O)C[C@H]1c2cc(F)ccc2S(=O)(=O)N1Cc1ccccc1OC | inactive: -4.18% | 
70 | CCCCCn1c(=O)[nH]c2cc(C(=O)N3CCN(c4cccc(C(F)(F)F)c4)CC3)ccc2c1=O |  | active: 10.3 µM
71 | Nc1cccc2c1C(=O)N(C(=O)c1ccco1)C2=O | inactive: 45.9% | 
72 | CSc1nnc2c3ccccc3n(CCc3ccccc3)c2n1 |  | active: 7.31 µM
73 | CC1C(O)CC2C(C(=O)O)=CO[C@@H](O[C@H]3OC(CO)C(O)C(O)C3O)C21 (some centres undefined) | inactive: -12.3% | 
74 | CC(C)CNC(=S)N1CCC(c2nc(-c3ccc(F)cc3)no2)CC1 |  | active: 20.6 µM
75 | CC(=O)C[C@H](O)CC(=O)[C@H]1OC(=O)CCCCCCc2ccccc21 | inactive: -1.41% | 

Row | Compound | activity change, negative = growth inhibition | Potency
76 | COC(=O)C1=C[C@@H](C(=O)OC)[C@@H]2C3=C(C(=O)[C@@]2(C)NC(=O)c2ccccc2)[C@H](c2ccccc2)n2c(=O)n(-c4ccccc4)c(=O)n2[C@@H]3C1 | inactive: 66.1% | 
77 | CN(C)CCNC(=O)Cn1c(=O)c2cccn2c2ccc(F)cc21 | inactive: -29.7% | 
78 | Cc1ccc(C)c(C(=O)CCC(=O)N2CCN(c3ncccn3)CC2)c1 | inactive: 12.9% | 
79 | COc1ccc2ccc(=O)oc2c1 | inactive: -5% | 
80 | O=C(NCc1ccccc1)C(=O)Nc1nc(C23CC4CC(CC(C4)C2)C3)cs1 |  | active: 23.1 µM
81 | C(=Cc1nc2ccccc2o1)c1ccc2c(c1)OCO2 | inactive: -12.2% | 
82 | CCN(Cc1ccccc1)CC(O)COc1ccccc1 (centres undefined) | inactive: 35.8% | 
83 | CC(C)C[C@@H](CO)N1CCN(Cc2cccnc2)CCC1=O | inactive: 0.925% | 
84 | COC(=O)CC1COc2ccccc2N1S(=O)(=O)c1ccc(OC)cc1 (centres undefined) |  | active: 3.66 µM
85 | COc1ccc(Cn2ccnc2CO)cc1[N+](=O)[O-] | inactive: 33.4% | 
86 | C[C@@H]1CN([C@@H](C)CO)C(=O)CCCn2nncc2CO[C@H]1CN(C)S(=O)(=O)c1ccc(Oc2ccccc2)cc1 | inactive: -18.7% | 
87 | CCOC(=O)CNC(=O)c1cccnc1 | inactive: 1.87% | 
88 | Cc1ccccc1-c1noc(C(C)NC(=O)c2ccco2)n1 (centres undefined) | inactive: -22.3% | 
89 | Cc1cccc(Oc2nccc(C(F)(F)F)c2C(=O)Nc2ccc(F)cc2F)c1 | inactive: 13.1% | 
90 | CCN(CC)C(=O)CSc1nc2c(sc(=S)n2-c2ccccc2)c(=O)n1Cc1ccco1 |  | active: 23.1 µM
91 | COc1ccc(-c2cc(=O)c3ccc(O)cc3o2)cc1 | inactive: 2.09% | 
92 | N[C@H](Cc1ccc(Cl)cc1)C(=O)O | inactive: 3.3% | 
93 | O=C1C2CCCCC2C(=O)N1c1nccs1 (centres undefined) | inactive: 36.6% | 
94 | CC(=O)c1ccc(S(=O)(=O)N2CCN(CC#N)CC2)cc1 | inactive: -2% | 
95 | O=C(C1=C[C@@H](C2CCCCC2)C[C@@H](OCc2ccc(CO)cc2)O1)N1CCOCC1 | inactive: -19.8% | 
96 | Cc1cc(C)nc(-n2nc(C)c3c2N(Cc2ccccc2)C(=O)CC3c2ccc(Cl)cc2)n1 (centres undefined) |  | active: 16.4 µM
97 | C[C@@H]1CN([C@@H](C)CO)C(=O)CCCn2nncc2CO[C@H]1CN(C)S(=O)(=O)c1ccccc1 | inactive: -5.54% | 
98 | COc1ccc(NC(=O)CN(C)S(=O)(=O)c2ccc3c(c2)CCCN3C(C)=O)cc1 | inactive: -2.24% | 
99 | CC[C@@H]1C/C=C\Cc2ccccc2[C@@H](C(=O)C[C@@H](O)CC(C)=O)OC1=O | inactive: 8.43% | 
